Assay results from PubChem BioAssay AID1347073 (National Center for Advancing Translational Sciences (NCATS), 2019).
Screen size: about 45,000 compounds; about 200 (0.44%) were called active. Inconclusive results (about 7%) are left out. Calls come from the whole dose curve; as a rule, active = well fitted activation curve with a large enough effect; inconclusive = small, poorly fitted or top-dose-only effect; inactive = no such curve, though single readings can be large or run the other way. The list shows a part of the results.

test: qHTS of TDP-43 Inhibitors: NCGC Sytravon Library Screen; settings: yeast TDP-43 toxicity rescue, BacTiter-Glo growth, 24 h; series mostly up to 46.1 µM; growth rescue (activation): at the top concentration; note: nearly all actives have a fitted effect of over 55% in size; for growth rescue (activation): 0% is about no effect
How it was run: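 TDP-43-expressing yeast, pregrown in raffinose, seeded at OD600 0.02 in galactose medium with compound for 24 hr at 30 deg C. Growth read by BacTiter-Glo luminescence, so rescue of toxicity appears as activation.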
Potency is the fitted concentration of half-maximal effect.

Row | SMILES | growth rescue (activation) | Potency
1 | COc1ccccc1-n1nc(C)cc1N | inactive: -6.56% | 
2 | O=C(O)CC(c1cccc(C(F)(F)F)c1)N1CCS(=O)(=O)CC1 (centres undefined) | inactive: -11.6% | 
3 | COc1ccc(C(C)=O)cc1CC(=O)Nc1ccc2c(c1)CCC2 | inactive: -4.52% | 
4 | COc1ccc(OCC(=O)NCCNC(=O)c2ccccn2)cc1 | inactive: -2.8% | 
5 | Cc1ccc(C)c(N(CC(=O)NC2CCCCC2)C(=O)c2snc(C(N)=O)c2N)c1 | inactive: 15.6% | 
6 | CCOC(=O)C1CCCN(C(=O)c2cc(S(=O)(=O)Nc3ccccc3OC)ccc2C)C1 (centres undefined) | inactive: 18.2% | 
7 | COc1ccc(CN2CCNC(=O)C2CC(=O)N(C)Cc2nc(C)cs2)c(OC)c1 (centres undefined) | inactive: -3.97% | 
8 | CCCCS(=O)(=O)NC(=O)C1(C)CCN1C(=O)C/C=C/c1ccccc1 (centres undefined) | inactive: -2.43% | 
9 | CC(C)c1nnc(NC(=O)C2CCCN2C(=O)Nc2ccc(F)cc2)s1 (centres undefined) | inactive: -5.33% | 
10 | Cc1cccc(N2CC(C(=O)NC3CCCCCC3)CC2=O)c1C (centres undefined) | inactive: 28.2% | 
11 | CCOCCCn1c(=S)[nH]c2cc(C(=O)NCCCN(CC)CC)ccc2c1=O | inactive: 14.8% | 
12 | COc1cc(C(=O)Nc2ccc(NC(=O)c3cccc(Cl)c3)nc2)cc(OC)c1OC | inactive: 4.4% | 
13 | CSc1cccc(NC(=S)N2CCCN(Cc3cccc(Cl)c3)C2)c1 | inactive: 6.46% | 
14 | O=C(N/N=C/c1ccccc1O)C(=O)Nc1ccccn1 | inactive: 28.1% | 
15 | Cc1nn(Cc2ccc(C(=O)NN)cc2)c(C)c1Cl | inactive: 22.4% | 
16 | CSc1ccc(CN2C(=O)NC3(CCCCCCC3)C2=O)cc1 | inactive: 8.34% | 
17 | O=C(NCC1CCCCC1)c1ccc2nc([C@H]3C[C@H](O)[C@@H](CO)O3)[nH]c2c1 | inactive: 1.22% | 
18 | COc1ccc(N(CC(=O)NC2CCCCC2)C(=O)CCC(=O)Nc2nc(C)cs2)cc1OC | inactive: -5.07% | 
19 | COc1ccc(C(=O)CC(=O)c2ccccc2O)cc1OC | inactive: 9.48% | 
20 | Cc1cccc(-n2c(C)cc(/C=C3/C(=N)N4C(c5ccccc5)=CSC4=NC3=O)c2C)c1 | inactive: -0.464% | 
21 | CC(C)(C)NC(=O)COC(=O)c1ccccc1Nc1ccc(SC(F)F)cc1 | inactive: -5.26% | 
22 | COCCNc1nc(N)c([N+](=O)[O-])c(NCc2ccccc2)n1 | inactive: 15.9% | 

Row | SMILES | growth rescue (activation) | Potency
23 | Cc1ccc(S(=O)(=O)N/N=C\c2ccc3c(c2)OCO3)cc1C | inactive: -16.1% | 
24 | COc1ccc(-c2cn(-c3ccc(C)cc3)c(=O)n2CC(=O)Nc2ccc(OC)c(OC)c2)cc1 | inactive: -9.94% | 
25 | COc1ccc(N2CCN(CC(O)COC(c3ccccc3)c3ccccc3)CC2)cc1 (centres undefined) | inactive: 8.25% | 
26 | COC(=O)c1ccc(CNC(=O)C2CCC(=O)N(Cc3cccc(F)c3)C2)cc1 (centres undefined) | inactive: 10.4% | 
27 | O=C(N/N=C/c1ccc2c(c1)OCO2)c1ccc(NC(=O)c2ccc(F)cc2)cc1 | inactive: 11.9% | 
28 | Cc1cc(/C=N/N2CCN(C)CC2)c(C)n1-c1ccc(Cl)cc1 | inactive: 25.9% | 
29 | COc1ccc(S(=O)(=O)Nc2ccc(C)cn2)cc1 | inactive: -28.5% | 
30 | COc1ccc(Cc2nnc(SCC(=O)Nc3ccc(N4CCOCC4)cc3)o2)cc1 | inactive: 7.78% | 
31 | CC1(C(=O)Nc2cccc3c2CCCC3)CCN1C(=O)C1(c2ccccc2)CC1 (centres undefined) | inactive: 17.1% | 
32 | COc1ccccc1NC(=O)CN1CCN(CC(=O)Nc2ccc(C)c(F)c2)CC1 | inactive: 1.33% | 
33 | CCOc1ccc(NC2=CC(=O)CCC2)cc1 | inactive: -8.33% | 
34 | Cc1cccc(C(=O)n2cnnc2N)c1 | inactive: 6.66% | 
35 | CCOC(=O)c1cc(NC(=O)C2C3C=CC(O3)C2C(=O)O)cc(C(=O)OCC)c1 (centres undefined) | inactive: 1.45% | 
36 | O=C(CSc1nnc(Nc2ccccc2F)s1)NCC1CCCO1 (centres undefined) | inactive: 1.09% | 
37 | Cc1csc(NC(=O)c2cc(-c3ccncc3)nc3ccccc23)n1 | inactive: 4.7% | 
38 | O=Cc1cnc(N2CCCCC2)s1 | inactive: -0.698% | 
39 | Cc1cccnc1NC(=O)C1CCN(S(=O)(=O)c2c(C)noc2/C=C/c2ccco2)CC1 | inactive: 7.82% | 
40 | CC(C)n1ncc2c(C(=O)NCCOc3ccccc3F)cc(C3CC3)nc21 | inactive: 21.2% | 
41 | O=C(CCC1CCCC1)Nc1cccc(Cc2ccncc2)c1 | inactive: 9.44% | 
42 | CC(C)CC1=NN(C(=O)c2ccco2)C(O)(C(F)(F)F)C1 (centres undefined) | inactive: 0.39% | 
43 | CN(C)CCNC(=O)CCn1nc(-c2ccc(Cl)cc2)ccc1=O | inactive: 16.1% | 
44 | CC(=O)NCCNc1nc(NCc2ccccc2)nc2ccsc12 | inactive: 14.2% | 

Row | SMILES | growth rescue (activation) | Potency
45 | COc1cccc(NC(=S)N(CCN2CCCCC2)Cc2ccco2)c1 | inactive: 15.4% | 
46 | CSCC(CO)NS(=O)(=O)c1ccc(C)cc1 (centres undefined) | inactive: 0.56% | 
47 | CSc1ccccc1OCc1cc(C(=O)N(C)CC2COCCO2)no1 (centres undefined) | inactive: 12% | 
48 | CCN(CC(=O)NC1CCS(=O)(=O)C1)S(=O)(=O)c1ccc2ccccc2c1 (centres undefined) | inactive: 3.81% | 
49 | O=C(COC(=O)/C=C/c1ccc(Cl)cc1)Nc1ccccc1-c1ccccc1 | inactive: 7.18% | 
50 | CCCC(=O)N1CCC1(C)C(=O)NS(=O)(=O)c1cccc(Cl)c1 (centres undefined) | inactive: -1.68% | 
51 | COc1ccc(C2=NN(C(=O)CCC(=O)O)C(c3ccc(OC)cc3)C2)cc1 (centres undefined) | inactive: 11.3% | 
52 | O=C(Nc1cccc(NC(=O)c2cccc(Cl)c2)c1)c1cccnc1 | inactive: 1.12% | 
53 | O=C(CC(=O)NCCc1ccccc1)NCCc1ccccc1 | inactive: 17.6% | 
54 | O=C1C=C(Nc2cccc3cccnc23)c2ccccc2C1=O | inactive: -4.32% | 
55 | COC(=O)Oc1ccc(/C=C/C(=O)OC(C)C)cc1OC(=O)OC |  | active: 14.1 µM
56 | CCCN(CCC)c1nc2c(C)cccn2c(=O)c1/C=C1/SC(=S)N(Cc2ccco2)C1=O | inactive: 0.403% | 
57 | CC(/C=C1\SC(=S)N(CCC(=O)Nc2cccc(C(=O)O)c2)C1=O)=C\c1ccccc1 | inactive: 14.7% | 
58 | COc1ccc(C2(C)NC(=O)N(CC(=O)NCCC3=CCCCC3)C2=O)cc1OC (centres undefined) | inactive: -19.4% | 
59 | O=Cc1cn(-c2ccccc2)nc1-c1ccccn1 | inactive: -36.4% | 
60 | Cn1nnnc1SCc1ccc(CSc2nnnn2C)cc1 | inactive: 8.21% | 
61 | Cc1ccccc1NC(=O)Cc1nc(COC(=O)c2ccc(NC(N)=O)cc2)cs1 | inactive: -6.79% | 
62 | O=C1NC(=Nc2ccccc2Cl)S/C1=C\c1cccc([N+](=O)[O-])c1O | inactive: -92.3% | 
63 | Cc1cccc(C)c1NC(=O)C(NS(=O)(=O)c1cccs1)c1ccccc1 (centres undefined) | inactive: 13.4% | 
64 | CCC(=O)N1CCc2cc(Br)c(S(=O)(=O)CCC(=O)NCCc3ccccc3)cc21 | inactive: -0.0509% | 
65 | O=C(NNC(=O)c1ccco1)c1ccccc1 | inactive: 1.48% | 
66 | CN(CC(=O)NCCc1ccc(F)cc1)CC(=O)Nc1ccc(F)c(F)c1F | inactive: 12% | 

Row | SMILES | growth rescue (activation) | Potency
67 | COc1ccc(Nc2nnc(-c3ccc(C)cc3)c3ccccc23)cc1C(=O)N1CCCCC1 | inactive: 11% | 
68 | Cc1cc(C(=O)N/N=C/c2ccc(Cl)c([N+](=O)[O-])c2)c(C)n1-c1ccc(F)cc1 | inactive: 26.5% | 
69 | N#C/C(=C\c1cccs1)C(=O)Nc1ccccn1 | inactive: 23% | 
70 | O=C1S/C(=C\C=C\c2ccco2)C(=O)N1c1ccccc1 | inactive: -14.5% | 
71 | Cc1cc(C)n2nc(SCC(=O)N(Cc3ccccc3)C3CCS(=O)(=O)C3)nc2n1 (centres undefined) | inactive: -9.43% | 
72 | Cn1cccc1C(=O)OCC(=O)NNC(=O)c1ccc([N+](=O)[O-])cc1 | inactive: 6.09% | 
73 | O=S(=O)(NC1CC1)c1ccc(F)c(F)c1 | inactive: 10.3% | 
74 | Cn1ccsc1=NC(=O)c1ccc(S(C)(=O)=O)cc1 | inactive: -8.77% | 
75 | CC1CCCC(C)N1/N=C/c1ccc([N+](=O)[O-])cc1 (centres undefined) | inactive: -13% | 
76 | CC(NS(=O)(=O)c1ccc2c(c1)OCCO2)c1ccccc1 (centres undefined) | inactive: 19.9% | 
77 | O=S(=O)(Nc1ccc(Br)cn1)c1ccc2ccccc2c1 | inactive: 5.17% | 
78 | COc1ccc(Cl)cc1C(Nc1cccnc1)c1ccc2cccnc2c1O (centres undefined) | inactive: -63.1% | 
79 | Cc1ccc(C(=O)Nc2ccc(NC(=O)c3ccc(C)o3)cc2)o1 | inactive: 10.8% | 
80 | COC(=O)c1ccc(NC(=S)N2CCC(C(N)=O)CC2)cc1 | inactive: 11.4% | 
81 | Nc1ccc(S(=O)(=O)C(F)(F)F)cc1N | inactive: 15.4% | 
82 | Clc1cccc(-c2ccc3nccn3c2)c1Cl | inactive: 3.51% | 
83 | CCOc1ccc(NC(=O)c2cccs2)c([N+](=O)[O-])c1 | inactive: 27.8% | 
84 | CC(C)(C)c1ccc(C(=O)Nc2ccc(S(=O)(=O)Nc3cnc4ccccc4n3)cc2)cc1 | inactive: 4.94% | 
85 | COc1cccc(C(=O)Nc2ccc(NC(=O)C3CC3)nc2)c1 | inactive: 6.23% | 
86 | COc1ccc(C2CC(c3cccs3)=NN2C(=O)CSc2nncs2)cc1OC (centres undefined) | inactive: -1.68% | 
87 | Cc1cc2oc(=O)cc(Cn3ncc(Cl)c(Cl)c3=O)c2cc1Cl | inactive: 8.52% | 
88 | CCCCOc1ccc(-c2csc(N)n2)cc1[N+](=O)[O-] | inactive: -28.7% | 

Row | SMILES | growth rescue (activation) | Potency
89 | Cc1ccc(NCc2ccc(O)c3ncccc23)cc1C | inactive: 20.5% | 
90 | CC(C)c1ccc2nc(SCC(=O)NCC3CCCO3)c(C#N)cc2c1 (centres undefined) | inactive: -0.595% | 
91 | CC(=O)c1cccc(N(CC(=O)NCCc2ccccc2)C(=O)c2csnn2)c1 | inactive: -24.1% | 
92 | CCOc1ccccc1NC(=O)c1ccc(S(=O)(=O)N2CCCCC2)cc1 | inactive: 9.56% | 
93 | S=c1[nH]nc(C2CCCCC2)n1/N=C/c1ccc(Cl)cc1 | inactive: -6.28% | 
94 | COC(=O)c1cc2oc3ccccc3c2n1Cc1ccc(Cl)cc1 | inactive: 15.5% | 
95 | COc1ccc(-c2cc(C(=O)OCC(=O)NC3CC3)c3ccccc3n2)cc1OC | inactive: 4.04% | 
96 | CCc1ccc(C(C)(O)C(CN2CCOCC2)c2ccccc2)cc1 (centres undefined) | inactive: 1.95% | 
97 | O=C(c1cccc([N+](=O)[O-])c1)N1CC2C3C=CC(C3)C2C1 (centres undefined) | inactive: 18.1% | 
98 | CC(=O)Nc1ccc(NC(=O)COC(=O)c2ccc([N+](=O)[O-])o2)cc1 | inactive: -5.76% | 
99 | COc1ccc(CNC(=O)C2CCN(C(=O)Cc3ccccc3)CC2)cc1 | inactive: 1.55% | 
100 | CCOc1ccc(/C=C(/NC(=O)c2ccc(Cl)cc2)C(=O)O)cc1OCC | inactive: -3.48% | 
101 | COc1ccc(CN2C(=O)/C(=C/c3ccncc3)SC2=S)cc1 | inactive: 7.53% | 
102 | COc1ccc(CC(=O)OCC(=O)NC2CCCCC2)cc1OC | inactive: 6.73% | 
103 | CCOC(=O)/C(C#N)=C/c1cn(CCC(=O)O)nc1-c1ccc(Cl)cc1 | inactive: 30.9% | 
104 | O=C(CSc1nnc(-c2ccccc2O)n1Cc1ccccc1)NNC(=O)c1ccccc1O | inactive: -16.6% | 
105 | CCN1CCN(c2ncnc3c2cnn3-c2cccc(C)c2)CC1 | inactive: 5.47% | 
106 | CCOc1cc(C)c(C(C)C)cc1S(=O)(=O)n1cnc(C)c1 | inactive: 20.1% | 
107 | CCCCNc1nnc(SCC(=O)c2c[nH]c3ccccc23)s1 | inactive: -19.1% | 
108 | COc1ccc(-c2cc(C3CC3)nc(SCC(=O)c3cccs3)c2C#N)cc1 | inactive: 10% | 
109 | CN(Cc1ccccc1)C(=O)COC(=O)c1cc(=O)c2ccccc2o1 | inactive: 2.01% | 
